In PubChem BioAssay AID686979 (National Center for Advancing Translational Sciences (NCATS), 2013):
Values joined by “and” are separate entries in the source; they are usually repeats but may differ in a detail not shown here. Equal entries are not always repeated. Out of some 420,000 compounds screened, about 50,000 (12%) were called active. Inconclusive means that the source gave no clear call. Such entries were picked first, then a sample of the others. Calls come from the whole dose curve; as a rule, active = well fitted inhibition curve with a large enough effect; inconclusive = small, poorly fitted or top-dose-only effect; inactive = flat fitted curve, though single readings scatter. Potencies of inconclusive entries are doubtful fits and often do not repeat.

assay: qHTS for Inhibitors of human tyrosyl-DNA phosphodiesterase 1 (TDP1): qHTS in cells in presence of CPT; details: chicken DT40 Tdp1-/-;hTDP1 cells + 20 nM CPT, ATP luminescence, 48 h; activity change, negative = growth inhibition: at 46.2 µM (top of the series) unless noted; note: nearly all actives have a fitted effect of over 55% in size
Outline: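 Cell growth measured by CellTiter-Glo luminescence after a minimum 48 h, 37 C compound exposure with 20 nM CPT in Tdp1-knockout DT40 cells stably expressing hTDP1, seeded 400/well; qHTS titration format.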
% is set by controls: 0 for no effect and ±100 for the full control effect; potency is the fitted concentration of half-maximal effect; tags give direction and shape of the fitted curve.

Structure (SMILES) | Potency | activity change, negative = growth inhibition
COc1ccc(/C=N/NS(=O)(=O)c2ccc(F)cc2)cc1COc1cc(F)ccc1[N+](=O)[O-] | inconclusive: 29.1 µM [inhibitor, single point] | 
CCOc1cc(/C=C2\SC(=Nc3ccc(CC)cc3)NC2=O)ccc1OCC(=O)O |  | inactive: -2.73%
COC(=O)C(C(=O)OC)c1ccccc1NS(=O)(=O)c1ccc(C)cc1 |  | inactive: -6.09%
O=C(C1CCCN(S(=O)(=O)c2cccs2)C1)N1CCc2ccccc2C1 (centres undefined) | inconclusive: 23.1 µM [inhibitor, single point] | 
CC(=O)N1CCc2cc(S(=O)(=O)NCCC(=O)NCCc3ccccc3)ccc21 | inconclusive: 23.1 µM [inhibitor, single point] | 
Cc1cc(F)ccc1S(=O)(=O)N1CCCOC1CNC(=O)C(=O)NCCc1ccco1 (centres undefined) |  | inactive: -2.72%
Cc1ccc(Cl)cc1N1CCN(CCNC(=O)Nc2ccc(Cl)cc2)CC1 | active: 11.6 µM | 
CCOC(=O)c1ccc(Oc2cn[nH]c2-c2ccc(OCC(=O)NN)cc2O)cc1 |  | inactive: -13.7%
COc1ccc(CN(CC(O)COCc2ccccc2)S(=O)(=O)c2ccccc2Br)cc1 (centres undefined) | inconclusive: 16.4 µM [inhibitor, partial curve] | 
COc1ccc(N2CCN(C(=O)c3nc(-c4ccc(Cl)cc4)n4c3CCCCC4)CC2)cc1 | inconclusive: 29.1 µM [inhibitor, single point] | 
COc1ccc(-c2ccc(NS(=O)(=O)c3cccc([N+](=O)[O-])c3)cc2)nn1 | inconclusive: 20.6 µM [inhibitor, single point] | 
CC(C)CC1C(=O)N(Cc2cn(CCC3OCCCO3)nn2)CCS(=O)(=O)N1Cc1ccc(-c2ccc(Cl)cc2)cc1 (centres undefined) | inconclusive: 13 µM [inhibitor, partial curve, poor fit] | 
Cc1ccc(N2C(=O)c3ccc(C(=O)NCCN4CCOCC4)cc3C2=O)cc1 |  | inactive: -17.1%
Cc1ccc(S(=O)(=O)NCCC(=O)OCC(=O)N2CCCC2=O)cc1 |  | inactive: 17.6%
COc1ccc(CCNC(=O)C2CC(c3ccc([N+](=O)[O-])cc3)=NO2)cc1 (centres undefined) | active: 6.51 µM | 
O=C(O)c1sc2cc(C(F)(F)F)cnc2c1-c1ccccn1 |  | inactive: -6.9%
Cn1c(SCC(=O)NCc2ccc3c(c2)OCO3)nc2scc(-c3cccs3)c2c1=O | inconclusive: 29.1 µM [inhibitor, single point] | 
O=C(C1CCN(S(=O)(=O)c2cccc3nonc23)CC1)N1CCN(c2ccccc2)CC1 | inconclusive: 18.4 µM [inhibitor, single point] | 
Cc1nn(-c2ccccc2)c(-c2ccccc2[N+](=O)[O-])c1CC#N | inconclusive: 29.1 µM [inhibitor, single point] | 
CC(C)c1cccc(C(C)C)c1NC(=O)c1ccccc1 |  | inactive: -4.22%
CC(=O)Oc1[nH]c(=O)c2cccc3c2c1CCC3 | inconclusive: 29.1 µM [inhibitor, single point] | 
CS(=O)(=O)N1CCc2cc(C(=O)N3CCN(c4ccc(F)cc4)CC3)ccc21 | inconclusive: 18.4 µM [inhibitor, single point] and inconclusive: 20.6 µM [inhibitor, single point] | 
CCN(C(=O)c1cccc(S(=O)(=O)N(C)C)c1)C12CC3CC(CC(C3)C1)C2 | active: 13 µM | 
COc1cc(OC)c(OC)cc1/C=C1\CC(C)C/C(=C\c2cc(OC)c(OC)cc2OC)C1=O (centres undefined) | active: 18.4 µM | 
CCOc1ccccc1Nc1nc2ccc(C)cc2n2cnnc12 | inconclusive: 29.1 µM [inhibitor, single point] | 

Structure (SMILES) | Potency | activity change, negative = growth inhibition
S=C1NC[C@H](c2ccccc2)N1CC1CCCCC1 | active: 20.6 µM | 
CCCOC(=O)c1cccc(Nc2nc(-c3cccnc3)nc3ccccc23)c1 | active: 9.2 µM | 
CCOCCCNc1ccc(N2C(=O)CCCC2=O)cc1[N+](=O)[O-] |  | inactive: -0.569%
Cc1cnc(NC(=O)C2CC(=O)N(c3cccc(Cl)c3)C2)s1 (centres undefined) | active: 7.31 µM | 
Oc1ccccc1N=Cc1c(O)ccc2oc3c(c12)CCCC3 | inconclusive: 23.1 µM [inhibitor, single point] | 
O=C(COC(=O)c1cccc(Br)c1)NC1CCCCCCC1 | inconclusive: 29.1 µM [inhibitor, single point] | 
O=C(CCCc1ccccn1)c1cccc2ccccc12 |  | inactive: -20.1%
COc1ccc(S(=O)(=O)NC(=O)C2(C)CCN2C(=O)C2(c3ccccc3)CCCC2)cc1 (centres undefined) | inconclusive: 18.4 µM [inhibitor, single point] | 
Cc1cccc(-n2c(C)cc(/C=N/NC(=O)c3ccc(CN4CCOCC4)cc3)c2C)c1 | inconclusive: 29.1 µM [inhibitor, single point] | 
CC(=O)N1CCCc2ccc(NS(=O)(=O)c3ccc(F)cc3F)cc21 |  | inactive: 3.45%
O=S(=O)(NCc1cn2ccsc2n1)c1ccc2c(c1)OCCO2 | inconclusive: 9.2 µM [inhibitor, partial curve] | 
CC1(C)NC(=O)N(CCOCCOc2c(Cl)cc(Cl)cc2Cl)C1=O |  | inconclusive: -36% [inhibitor]
Cc1ccc(Nc2ccc(C(=O)NC3CCCCC3)cn2)cc1 | inconclusive: 18.4 µM [inhibitor, single point] | 
O=[N+]([O-])c1cccc(/C=N/NC2CCS(=O)(=O)C2)c1 (centres undefined) |  | inactive: 20.8%
Cc1ccc(N2CC(NC(=O)c3ccc4c(c3)OCO4)CC2=O)cc1 (centres undefined) |  | inactive: 12.8%
O=C(Cn1cnc([N+](=O)[O-])n1)N/N=C/c1ccc(O)cc1O | inconclusive: 25.9 µM [inhibitor, single point] | 
Cc1ccc(-n2c(SCC(=O)Nc3cccc(Cl)c3)nc3n[nH]c(C)c3c2=N)cc1 | active: 8.2 µM | 
c1ccc(CCNCCOc2ccccc2)cc1 |  | inactive: 9.34%
COCCCNC(=S)Nc1cccc2ncccc12 |  | inconclusive: -30.1% [inhibitor]
CC(C)c1ccc(Nc2c(-c3ccccc3O)nc3cnccn23)cc1 | inconclusive: 25.9 µM [inhibitor, single point] | 
c1ccc2c(-c3nc(-c4ccncc4)no3)cccc2c1 |  | inactive: -27.3%
CCOc1ccc(-c2c(C)nn3c(C)c(C(=O)NCc4ccc(C)o4)cnc23)cc1OCC | inconclusive: 7.31 µM [inhibitor, partial curve] | 
O=C(O)/C=C/C(=O)NCCNc1ncc(C(F)(F)F)cc1Cl |  | inactive: 10.7%
CS(=O)(=O)N(CC(=O)N1CCN(c2ccccc2F)CC1)c1cccc(C(F)(F)F)c1 |  | inconclusive: -34.9% [inhibitor]
COc1ccc(CC(=O)Nc2nc3ccccc3[nH]2)cc1 | inconclusive: 16.4 µM [inhibitor, single point] | 

Structure (SMILES) | Potency | activity change, negative = growth inhibition
Cn1c(Oc2ccc(F)cc2)nc2c1c(=O)n(Cc1ccccc1Cl)c(=O)n2C | active: 23.1 µM | 
Cn1nc(OC(=O)Nc2cccc(Cl)c2)cc1C(F)(F)F | inconclusive: 7.31 µM [inhibitor, partial curve] | 
Cc1cccc2c1NC(=O)/C2=C\C(=O)c1cccs1 | active: 4.61 µM | 
CC(=O)N1CCc2c(sc3c2c(=O)n(-c2ccc(C)cc2)c(=O)n3CC(=O)Nc2ccccc2)C1 | inconclusive: 20.6 µM [inhibitor, single point] | 
COc1ccc(/C=N/NC(=S)Nc2cc(C(F)(F)F)ccc2Cl)cc1 | inconclusive: 16.4 µM [inhibitor, partial curve] | 
O=C(NCCc1ccc(Cl)cc1)c1ccc(CS(=O)(=O)Cc2ccccc2F)o1 | inconclusive: 18.4 µM [inhibitor, single point] | 
COc1ccc(CCC(=O)Nc2ccc(Cl)c(S(=O)(=O)N3CCOCC3)c2)cc1OC | active: 23.1 µM | 
O=C(O)CCC(=O)N1CCN(c2ncccn2)CC1 |  | inactive: -16%
CCN(CC)c1ccc(C=Nc2cc(C)cc(C)c2)c(O)c1 | inconclusive: 32.6 µM [inhibitor, single point] | 
Cc1cc(C)[n+]2[nH]c(N)c(N=Nc3ccccc3)c2n1 | inconclusive: 29.1 µM [inhibitor, single point] | 
O=S(=O)(Cc1ccc(Cl)cc1)c1ccccc1-c1nnc(-c2ccc(Cl)cc2)o1 | inconclusive: 29.1 µM [inhibitor, single point] | 
O=C(c1noc2c1CCCC2)N1CCc2c([nH]c3ccccc23)C1c1ccccn1 (centres undefined) | inconclusive: 23.1 µM [inhibitor, single point] | 
O=S(=O)(O)c1nc2ccccc2n1Cc1ccc(Cl)cc1Cl | inconclusive: 18.4 µM [inhibitor, single point] | 
Cc1ncc(C(=O)O)c(C(=O)O)c1N |  | inactive: 3.75%
Cc1sc(N/N=C/c2cccs2)nc1-c1ccccc1 | inconclusive: 29.1 µM [inhibitor, single point] | 
O=C(Nc1ccc(-n2cc(Br)cn2)cc1)c1ccncc1 |  | inactive: -19.8%
O=C(/C=C/c1cccs1)Nc1ccc(N2CCOCC2)c(S(=O)(=O)Nc2cc(Cl)ccc2Cl)c1 | inconclusive: 23.1 µM [inhibitor, single point] | 
CC(C)c1ccc(-c2csc3nc[nH]c(=O)c23)cc1 |  | inactive: -10.9%
Cc1cc(C)cc(Nc2cc(C)nc3nc(C)nn23)c1 | inconclusive: 23.1 µM [inhibitor, partial curve] | 
COc1nc(Nc2ccc(C(C)C)cc2)nc(OC)n1 | inconclusive: 18.4 µM [inhibitor, partial curve] | 
CCc1nnc(NS(=O)(=O)c2ccc(N/C=C\C(=O)c3ccc(C)cc3)cc2)s1 |  | inactive: -12.6%
O=C(O)C(Cc1c[nH]c2ccccc12)NS(=O)(=O)c1ccccc1 (centres undefined) |  | inactive: -4.3%
O=C(/C=C/c1cccc(Cl)c1)NCc1ccccc1 |  | inactive: 13.1%
CC1C(=O)N2CCCc3cc(S(=O)(=O)N(C)Cc4ccccc4)cc1c32 (centres undefined) | inconclusive: 29.1 µM [inhibitor, single point] | 
